Experimental findings from paper PMC3473057 are described below.

Amino acid sequences for entries named in this document (tags omitted). A change or cut given only in a name is not applied to a line headed by its entry. Chains listed by the source or under a name are the forms on record and can include a tag or linker. Residues count along the entry.
UniProt P06241: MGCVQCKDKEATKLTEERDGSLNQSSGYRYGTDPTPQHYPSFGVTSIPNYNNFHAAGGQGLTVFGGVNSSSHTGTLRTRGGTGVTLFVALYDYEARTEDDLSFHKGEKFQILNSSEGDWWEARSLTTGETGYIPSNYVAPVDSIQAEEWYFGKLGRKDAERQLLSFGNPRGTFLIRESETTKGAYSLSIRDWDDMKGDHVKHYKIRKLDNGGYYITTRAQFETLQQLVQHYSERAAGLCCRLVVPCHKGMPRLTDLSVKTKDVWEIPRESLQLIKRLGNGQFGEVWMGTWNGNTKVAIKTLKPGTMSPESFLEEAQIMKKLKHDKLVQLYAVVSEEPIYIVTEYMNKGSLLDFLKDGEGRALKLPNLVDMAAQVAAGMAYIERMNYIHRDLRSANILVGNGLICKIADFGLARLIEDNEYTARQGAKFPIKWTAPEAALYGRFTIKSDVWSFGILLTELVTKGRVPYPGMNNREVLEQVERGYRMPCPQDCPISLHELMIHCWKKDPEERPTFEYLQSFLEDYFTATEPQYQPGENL
GST-human Fyn-SH2 (Trp149-Arg268): residues 149-268 of P06241
GST-rat Lyn-SH3 (Q07014, residues 63-123): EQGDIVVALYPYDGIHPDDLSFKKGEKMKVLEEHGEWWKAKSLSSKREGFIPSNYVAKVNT
GST-rat Lyn-SH2 (Q07014, residues 129-226): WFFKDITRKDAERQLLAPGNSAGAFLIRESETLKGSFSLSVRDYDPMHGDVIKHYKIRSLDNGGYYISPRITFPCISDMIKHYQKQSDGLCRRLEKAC
UniProt P54100, residues 669-763: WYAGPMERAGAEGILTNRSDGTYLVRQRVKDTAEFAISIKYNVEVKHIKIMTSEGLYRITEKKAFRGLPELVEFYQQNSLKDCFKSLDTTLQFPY
UniProt Q13191, residues 2-349: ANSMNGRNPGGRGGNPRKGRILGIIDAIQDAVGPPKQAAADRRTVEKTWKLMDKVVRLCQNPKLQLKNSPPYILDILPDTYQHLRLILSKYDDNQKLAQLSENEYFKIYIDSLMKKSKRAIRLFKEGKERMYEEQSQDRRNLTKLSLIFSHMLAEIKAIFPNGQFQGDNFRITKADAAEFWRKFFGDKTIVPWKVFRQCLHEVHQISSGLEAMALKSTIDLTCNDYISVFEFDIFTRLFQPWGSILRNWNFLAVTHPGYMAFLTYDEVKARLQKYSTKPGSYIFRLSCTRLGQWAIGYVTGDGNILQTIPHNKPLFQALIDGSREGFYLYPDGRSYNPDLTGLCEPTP
UniProt Q06649, residues 455-553: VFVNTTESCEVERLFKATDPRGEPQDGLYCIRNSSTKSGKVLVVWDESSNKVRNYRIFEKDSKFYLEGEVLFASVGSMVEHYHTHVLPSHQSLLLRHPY
GST-Fyn-SH3 (mouse Fyn(T), Thr82-Glu148) (P39688, residues 82-148): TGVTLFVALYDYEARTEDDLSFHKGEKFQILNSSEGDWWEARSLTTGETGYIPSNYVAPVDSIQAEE
GST-Fyn-SH2 R176K (P39688-2, form named): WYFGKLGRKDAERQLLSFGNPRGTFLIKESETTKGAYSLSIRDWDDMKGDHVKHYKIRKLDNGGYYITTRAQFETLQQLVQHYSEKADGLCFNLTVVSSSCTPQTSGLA
GST-Fyn-SH2 (mouse Fyn(T), Trp149-Ala257) (P39688-2, form named): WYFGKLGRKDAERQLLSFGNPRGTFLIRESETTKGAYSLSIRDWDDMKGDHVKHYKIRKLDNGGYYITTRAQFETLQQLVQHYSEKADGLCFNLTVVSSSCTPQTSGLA
UniProt P00520, residues 65-119: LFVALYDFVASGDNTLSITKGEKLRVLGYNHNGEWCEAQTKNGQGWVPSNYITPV

For assay [1], the target named is Myc-His tagged HCV NS5A (Con1), stably expressed in BJAB B cells (hepatitis C virus) (UniProt Q9WMX2). Put plainly: co-IP.
For assay [2], the target named is Fyn, endogenous in BJAB cells (human (endogenous in BJAB)) (UniProt P06241). Put plainly: co-IP.
For a further assay, the target named is GST-rat Lyn-SH2 (rat) (UniProt Q07014). The assay can be described thus: pull-down; as the GST pull-down from PV-treated BJAB cells expressing Myc-His-NS5A; long exposure of the blot, data not shown; only the target purified.
A further assay addresses GST-rat Vav1-SH2 (rat) (UniProt P54100). Described as above.
Assay [3] deals with GST-Cbl-b N-terminal region containing SH2 domain (human, Ala2-Pro349) (human) (UniProt Q13191). The assay is described as above.
The target in assay [4] is GST-mouse c-Abl SH3 domain-binding protein-2 (3BP2)-SH2 (mouse) (UniProt Q06649). The assay is described as above.
Assay [5] addresses GST-human Fyn-SH2 (Trp149-Arg268) (human) (UniProt P06241). Put plainly: pull-down; GST-human Fyn-SH2; PV-treated BJAB cells expressing Myc-His-NS5A (clone 7) solubilized in the lysis buffer; blot with anti-NS5A; only the target purified.
Assay [6] has as its target GST-Fyn-SH2 R176K (mouse) (UniProt P39688). The assay can be described thus: pull-down; 20 µg GST-fusion protein prebound to glutathione Sepharose 4B; lysate of BJAB cells stably expressing Myc-His-NS5A, untreated or treated with 100 µM pervanadate for 3 min; binding buffer 1% NP-40, 50 mM Tris pH 7.4, 150 mM NaCl, 10 mM EDTA; 90 min at 4°C; blot with anti-NS5A; only the target purified.

Assay [7] addresses GST-Fyn-SH2 (mouse Fyn(T), Trp149-Ala257) (mouse) (UniProt P39688). The assay is described as above.
Assay [8] has as its target GST-c-Abl-SH3 (mouse, Leu84-Val138) (mouse) (UniProt P00520). The description is as above.
Assay [9] addresses GST-Fyn-SH3 (mouse Fyn(T), Thr82-Glu148) (mouse) (UniProt P39688). The description is as above.
The next assay deals with GST-rat Lyn-SH3 (rat) (UniProt Q07014). Described as above.
In assay [10] the target is Myc-His tagged HCV NS5A (Con1), stably expressed in BJAB B cells (hepatitis C virus) (UniProt Q9WMX2). Put plainly: far-Western, overlay or dot blot; NS5A immunoprecipitates from BJAB cells separated by SDS-PAGE and transferred to PVDF; membrane incubated with 2.5 µg/ml GST-Fyn-SH2 for 1 h at 4°C; detected with anti-GST; only the binder purified.
In assay [11] the target is GST-Fyn-SH2 (mouse Fyn(T), Trp149-Ala257) (mouse) (UniProt P39688). The assay can be described thus: pull-down; only the target purified.

These are yes or no findings as the source states them, for the method shown. For some assays here: In cells and extracts the contact can be indirect. Some binding calls cover weakened binding; strength is not graded here.

For “Fyn, endogenous in BJAB cells (from UniProt P06241 1-537)”, in assay [1], the binding entry is “binds”.

With “Myc-His tagged HCV NS5A (Con1), stably expressed in BJAB B cells (from UniProt Q9WMX2 1973-2419)”, the binding entry in assay [2] is reported as “binds”; with GST-rat Lyn-SH2 (rat), “binds weakly”; with GST-rat Vav1-SH2 (rat), “binds weakly”; in assay [3], “binds weakly”; in assay [4], “binds weakly”; in [5], “binds”. Moreover, the binding entry in [6] was “no binding”; in assay [7] it was “binds”; in assay [8], “binds”; in assay [9], “binds”; in the assay with GST-rat Lyn-SH3 (rat), “binds”.

As for “GST-Fyn-SH2 (mouse Fyn(T), Trp149-Ala257) (from UniProt P39688-2 149-257) (domain or fragment)”, in assay [10], the binding result is given as “binds”.

In the case of “HCV NS5A in Huh-7.5 cells stably harboring an HCV subgenomic replicon (from UniProt Q9WMX2 1973-2419)”, the binding entry in [11] is reported as “binds”.
